Test results reported in patent US20110144029A1, “Model Systems and Materials for the Study and Treatment of Neurodegenerative Diseases” (BOARD OF REGENTS, THE UNIVERSITY OF TEXAS SYSTEM, priority 2009, published 2011).
“Also recorded” adds a separate entry of the source. At least one peptide structure holds a part that was inferred or is arguable (an end, a ring closure or a residue). Some entries share one result that the patent states for a list of compounds. Where a SMILES comes first, the peptide text is derived from it. [ ]: non-standard residue; d: D form.

Columns and labels:
[1] = Transmission electron microscopy (TEM) of peptide aggregates; assay type: physicochemical; settings: 100 μM peptide in Buffer A; for diameter of fibrils / filaments / amyloid bodies / fibers: overnight; for diameter of fibrils / filaments / amyloid bodies / fibers / morphology of aggregates: uranyl acetate stain
Protocol: All peptides were prepared at 100 μM in Buffer A and stained with uranyl acetate;
Transmission Electron Microscopy (TEM): Filtered stock peptide solutions were diluted to 100 μM in 5 mM MOPS containing 0.1% NaN3, 0.15 M NaCl, pH 7.2 (Buffer A) and were incubated at room temperature overnight. Samples were loaded onto carbon-coated Formvar copper grids (200 mesh) and stained with 2% wt/wt uranyl acetate. A JEOL 1200 EX scope interfaced to a digital camera was used to visualize samples.

[2] = Polymerization kinetics by Thioflavin S (ThS) fluorescence in the presence of heparin; assay type: physicochemical; settings: for A (maximum fluorescence, fitted kinetic parameter) / k (rate constant of aggregation, fitted) / k (aggregation rate, as printed in text) / k′ (slow decrease in fluorescent intensity: ThS bleaching, quenching, precipitation; fitted): 10 μM peptide; for A (maximum fluorescence, fitted kinetic parameter) / k (rate constant of aggregation, fitted) / k′ (slow decrease in fluorescent intensity: ThS bleaching, quenching, precipitation; fitted): 33 μM heparin, 100 μM ThS, ±10% error; for A (maximum fluorescence, fitted kinetic parameter): Buffer A pH 7.2, 21° C., NA = no aggregation observed by ThS fluorescence; for k (rate constant of aggregation, fitted) / k′ (slow decrease in fluorescent intensity: ThS bleaching, quenching, precipitation; fitted): Buffer A pH 7.2; for k (rate constant of aggregation, fitted): NA = no aggregation observed; for k (aggregation rate, as printed in text) / self-aggregation in vitro: heparin; for k (aggregation rate, as printed in text): ThS; for self-aggregation in vitro: ThS fluorescence, 10 μM concentration
Protocol: Aggregation kinetics of T-peptide (filled triangles), V-peptide (filled diamonds), F-peptide (X), Core peptide (open triangles), VV-peptide (open diamonds) and K-peptide (filled circles). […] Solid lines represent fitted values;
Kinetic analysis: Polymerization kinetics were measured by monitoring the increase in Thioflavin S (ThS) fluorescence at 490 nm (440 nm excitation). Slit widths were 15 and 20 nm respectively for excitation and emission. All measurements were carried out at 21° C. with a Perkin Elmer LS50B spectrofluorimeter using a 75 μL quartz cell. Data points were collected at 6 s intervals over the course of the experiment (60 min). In order to initiate polymerization a freshly filtered stock solution was diluted to 10 μM in 200 μL of Buffer A containing 33 μM heparin (Sigma-Aldrich; 3,000 MW) and 100 μM Thioflavin S (ThS). Kinetics data, corrected for the blank, were fit using a non-linear least squares algorithm to a Gompertz-like growth curve {{260 Necula, M. 2004}} (Eqn.)
where y is defined as the fluorescence signal at time t, ti corresponds to the inflection point of the curve, or the time of maximum growth rate, A is the maximum fluorescence observed for a given sample, and b=1/k, where k is the rate constant of aggregation, in units of s^−1. Lag-times were calculated as ti−b. The pre-growth curve exponential, e^(−k′t) was inserted to take into account the slow decrease in fluorescent intensity resulting from ThS bleaching, quenching and gravitational precipitation of the amyloid-ThS complex. Standard errors in fitted parameters were estimated assuming a 10% error in the sum of the squares.

HT-22 cells = test: Mitochondrial membrane potential with JC-1 dye; assay type: cell-based; settings: 24 hours, serum-free medium, various concentrations
HT22 cells = test: Thioflavin-S staining of aggregates in treated cells; assay type: cell-based; settings: 3 hours after peptide treatment
[3] = system: cerebellar granule neurons; test: Live/Dead (Red/Green) viability assay in cultured cerebellar granule neurons; assay type: cell-based, rat; settings: 24 h
Protocol: Neuronal cultures were switched to serum-free medium T-peptide, K-peptide, Core-peptide, V-peptide. VV-peptide, and T (L)-peptide. All peptides were used at 25 μM concentration. Phase contrast micrographs show appearance of the cultures after 24 h of peptide treatment. The Live/Dead viability assay was also performed. Nuclei of dead cells are stained red whereas cytoplasm of living cells are stained green. In the case of sick and dying cells, green staining is condensed;
Cerebellar granule neurons were switched to serum-free medium containing various concentrations of T-peptide, K-peptide, Core-peptide, V-peptide, VV-peptide, and T (L)-peptide. Cell viability was measured using two independent methods 24 h after peptide treatment and results are graphed. * indicates p<0.05 compared with control cells that were treated with HK: (4A) Results from Red/Green viability assay, (4B) Results from MTT assay; […]
Cell viability quantification: Cell viability was quantified using the Live/Dead assays with a commercially available kit (Invitrogen). This is a two-color fluorescence assay utilizing two cell-permeable compounds, calcein acetoxymethyl (calcein AM) and ethidium homodimer-1 (EthD-1). […] Cell viability was also analyzed using the MTT [3-(4,5-Dimethylthiazol-2-yl)-2,5-diphenyltetrazolium bromide] assay based on the evaluation of mitochondrial function. […]

endogenous tau = test: Western blot of endogenous tau and phospho-tau in cerebellar granule neurons; assay type: cell-based, rat; settings: 10 μM peptide

| Compound | diameter of fibrils / filaments / amyloid bodies / fibers [1] | morphology of aggregates [1] | A (maximum fluorescence, fitted kinetic parameter) [2] | k (rate constant of aggregation, fitted) [2] | k (aggregation rate, as printed in text) [2] [s⁻¹] | mitochondrial membrane potential (ratio of red to green JC-1 fluorescence) (HT-22 cells) | thioflavin-S staining of aggregates in cells (HT22 cells) | self-aggregation in vitro [2] | neurons dead ([3]; 10 μM peptide) | half-periodicity of twisted filaments ([1]; n=7) [nm] | k′ (slow decrease in fluorescent intensity: ThS bleaching, quenching, precipitation; fitted) [2] | endogenous tau expression (endogenous tau; 3 h and 6 h, total tau antibody) | phosphorylation of tau at Ser404 and Ser262 (endogenous tau; 3 h or 6 h) | cell death ([3]; 25 uM peptide concentration) [%] |
| --- | --- | --- | --- | --- | --- | --- | --- | --- | --- | --- | --- | --- | --- | --- |
| CC[C@@H](C)[C@@H](NC(=O)[C@@H](CCC(N)=O)NC(=O)[C@H](NC(C)=O)C(C)C)C(=O)N[C@@H](C(=O)N[C@H](Cc1ccc(O)cc1)C(=O)N[C@H](CCCCN)C(N)=O)C(C)C [Core-peptide, Ac-vqivyk-NH2] (Ac-[dV][dQ][dI][dV][dY][dK]-NH2) | 7±1 nm | straight filaments | 6.3 | 10.6 (s^−1) × 10^3 | 10.6 | reduction in the mitochondrial membrane potential of HT-22 cells when added at high concentrations |  |  |  |  |  |  |  |  |
| CC[C@@H](C)[C@@H](NC(=O)[C@@H](CCC(N)=O)NC(=O)[C@H](NC(C)=O)C(C)C)C(=O)N[C@@H](C(=O)N[C@H](CCCCN)C(=O)N[C@H](CCCCN)C(=O)N[C@@H](CCCNC(=N)N)C(=O)N[C@@H](CCCNC(=N)N)C(=O)N[C@@H](CCCNC(=N)N)C(=O)N[C@@H](CCCNC(=N)N)C(=O)N[C@@H](CCCNC(=N)N)C(=O)N[C@@H](CCCNC(=N)N)C(=O)N[C@@H](CCCNC(=N)N)C(=O)N[C@@H](CCCNC(=N)N)C(=O)N[C@@H](CCCNC(=N)N)C(N)=O)C(C)C [K-peptide, Ac-vqivkk-R9—NH2] |  | irregular shaped non-fibular aggregates |  |  |  | very little change | not detectable; also recorded: not stained | no aggregation; also recorded: neither K-peptide nor VV-peptide aggregate in vitro |  |  |  |  |  |  |
| CC[C@H](C)[C@H](NC(=O)[C@H](CCC(N)=O)NC(=O)[C@@H](NC(C)=O)C(C)C)C(=O)N[C@H](C(=O)N[C@@H](Cc1ccc(O)cc1)C(=O)N[C@@H](CCCCN)C(=O)N[C@@H](CCCNC(=N)N)C(=O)N[C@@H](CCCNC(=N)N)C(=O)N[C@@H](CCCNC(=N)N)C(=O)N[C@@H](CCCNC(=N)N)C(=O)N[C@@H](CCCNC(=N)N)C(=O)N[C@@H](CCCNC(=N)N)C(=O)N[C@@H](CCCNC(=N)N)C(=O)N[C@@H](CCCNC(=N)N)C(=O)N[C@@H](CCCNC(=N)N)C(N)=O)C(C)C [T(L)-peptide, Ac-VQIVYKR9—NH2] |  |  |  |  |  | reduction in the mitochondrial membrane potential in a dose-dependent manner |  |  |  |  |  |  |  |  |
| CC[C@@H](C)[C@@H](NC(=O)[C@@H](CCC(N)=O)NC(=O)[C@H](NC(C)=O)C(C)C)C(=O)N[C@@H](C(=O)N[C@H](Cc1ccc(O)cc1)C(=O)N[C@H](CCCCN)C(=O)N[C@@H](CCCNC(=N)N)C(=O)N[C@@H](CCCNC(=N)N)C(=O)N[C@@H](CCCNC(=N)N)C(=O)N[C@@H](CCCNC(=N)N)C(=O)N[C@@H](CCCNC(=N)N)C(=O)N[C@@H](CCCNC(=N)N)C(=O)N[C@@H](CCCNC(=N)N)C(=O)N[C@@H](CCCNC(=N)N)C(=O)N[C@@H](CCCNC(=N)N)C(N)=O)C(C)C [T-peptide, Ac-vqivyk-R9—NH2] | 27±4 nm | left-handed twisted filaments | 9.1 | 8.5 (s^−1) × 10^3 | 8.5 | reduction in the mitochondrial membrane potential of HT-22 cells in a concentration-dependent manner | easily detectable; also recorded: distinct aggregate-like structures in the nucleus | aggregate in a fashion similar to the Core peptide | About 80% | 134±12 | 4.4 (s^−1) × 10^5 | reduced at 3 h of T-peptide with even more reduction occurring at 6 h | also reduced |  |
| CC(=O)N[C@@H](C(=O)N[C@H](CCC(N)=O)C(=O)N[C@@H](C(=O)N[C@@H](C(=O)N[C@H](Cc1ccc(O)cc1)C(=O)N[C@H](CCCCN)C(=O)N[C@@H](CCCNC(=N)N)C(=O)N[C@@H](CCCNC(=N)N)C(=O)N[C@@H](CCCNC(=N)N)C(=O)N[C@@H](CCCNC(=N)N)C(=O)N[C@@H](CCCNC(=N)N)C(=O)N[C@@H](CCCNC(=N)N)C(=O)N[C@@H](CCCNC(=N)N)C(=O)N[C@@H](CCCNC(=N)N)C(=O)N[C@@H](CCCNC(=N)N)C(N)=O)C(C)C)C(C)C)C(C)C [V-peptide, Ac-vqvvyk-R9—NH2] | 20-40 nm | irregular non-uniform filaments | 10 | 3.2 (s^−1) × 10^3 | 3.2 to 3.3 |  | easily detectable; also recorded: Positive staining | aggregate in a fashion similar to the Core peptide; also recorded: does form aggregates, albeit less efficiently than T-peptide |  |  | 4.8 (s^−1) × 10^5 |  |  | ~50 |
| CC(=O)N[C@@H](C(=O)N[C@H](CCC(N)=O)C(=O)N[C@@H](C(=O)N[C@@H](C(=O)N[C@@H](C(=O)N[C@H](CCCCN)C(=O)N[C@@H](CCCNC(=N)N)C(=O)N[C@@H](CCCNC(=N)N)C(=O)N[C@@H](CCCNC(=N)N)C(=O)N[C@@H](CCCNC(=N)N)C(=O)N[C@@H](CCCNC(=N)N)C(=O)N[C@@H](CCCNC(=N)N)C(=O)N[C@@H](CCCNC(=N)N)C(=O)N[C@@H](CCCNC(=N)N)C(=O)N[C@@H](CCCNC(=N)N)C(N)=O)C(C)C)C(C)C)C(C)C)C(C)C [VV-peptide, Ac-vqvvvkR9—NH2] |  |  |  |  |  |  |  | no aggregation; also recorded: neither K-peptide nor VV-peptide aggregate in vitro |  |  |  |  |  |  |
| Ac-VQIVFK-R9—NH2 (VQIVFKRRRRRRRRR) [F-peptide] |  |  |  |  | 3.2 to 3.3 |  |  |  |  |  |  |  |  |  |
